Measurements taken from the supplement of paper PMC10037445.
Where “and” joins values, the source holds several entries; their conditions need not be identical. Identical values can stand only once. Over roughly 2,900 compounds, “NF-kB SEAP reporter activity, fold change vs agonist alone” has its median near 0.99; the highest 2% begin near 2.6. This is one part of the list.

Columns and labels:
RAW-Dual [1] = test: NF-kB SEAP reporter activity, fold change vs agonist alone; cytotoxicity flag (confluency mask): not cytotoxic; higher = enhanced NF-kB activity
How it was run: (§1)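 Reporter activity is given as fold change relative to agonist-alone wells. To measure it, 50 nL of library stock was pin-tooled onto RAW-Dual macrophages (50,000 cells/well, DMEM, 384-well plates), a PRR agonist followed 1 h later, and cells stayed at 37 °C, 5% CO2. Twenty hours on, supernatant was assayed for IRF (QuantiLuc luminescence) and NF-κB (QuantiBlue, 620 nm absorbance), and wells under 70% of agonist-control IncuCyte confluency in both mask sets were marked cytotoxic.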

RAW-Dual [2] = test: NF-kB SEAP reporter activity, fold change vs agonist alone; higher = enhanced NF-kB activity; conditions: cytotoxicity flag (confluency mask): not cytotoxic
How it was run: as §1

[3] = agonist: ODN 1826 (TLR9) 0.5 ug/mL
[4] = agonist: Pam2CSK4 (TLR2/6) 0.1 ug/mL
[5] = agonist: Pam3CSK4 (TLR2/1) 0.1 ug/mL
[6] = library stock concentration (final ~1000-fold dilution): 10 mM, agonist: Imiquimod (TLR7) […]
[7] = library stock concentration (final ~1000-fold dilution): 10 mM, agonist: MPLA (TLR4) […]

Br.COc1ccc2c3c1OC1CC(O)C=CC31CCN(C)C2 (centres undefined) (library stock concentration (final ~1000-fold dilution): 10 mM water)
NF-kB SEAP reporter activity (RAW-Dual [1]; agonist: LPS (TLR4) 0.1 ug/mL): 1.12 | NF-kB SEAP reporter activity (RAW-Dual [1]; [3]): 1.02 | NF-kB SEAP reporter activity (RAW-Dual [1]; [4]): 1.12 | NF-kB SEAP reporter activity (RAW-Dual [1]; [5]): 1.16

Br.COc1ccc2c3c1OC1CC(O)C=CC31CCN(C)C2 (centres undefined)
NF-kB SEAP reporter activity (RAW-Dual [2]; library stock concentration (final ~1000-fold dilution): 10 mM water, agonist: Imiquimod (TLR7) […]): 0.936 | NF-kB SEAP reporter activity (RAW-Dual [2]; library stock concentration (final ~1000-fold dilution): 10 mM water, agonist: MPLA (TLR4) […]): 0.997

CN(C(=O)n1cnc(-c2ccc[n+]([O-])c2)c1)C1CCCCC1 (library stock concentration (final ~1000-fold dilution): 10 mM)
NF-kB SEAP reporter activity (RAW-Dual [1]; agonist: LPS (TLR4) 0.1 ug/mL): 1.04 | NF-kB SEAP reporter activity (RAW-Dual [1]; [3]): 0.925 | NF-kB SEAP reporter activity (RAW-Dual [1]; [4]): 0.966 | NF-kB SEAP reporter activity (RAW-Dual [1]; [5]): 1.01

CN(C(=O)n1cnc(-c2ccc[n+]([O-])c2)c1)C1CCCCC1
NF-kB SEAP reporter activity (RAW-Dual [2]; [6]): 0.995 | NF-kB SEAP reporter activity (RAW-Dual [2]; [7]): 1.03

CC(CN1CC(=O)NC(=O)C1)N1CC(=O)NC(=O)C1.Cl (centres undefined)
NF-kB SEAP reporter activity (RAW-Dual [2]; [6]): 0.988 | NF-kB SEAP reporter activity (RAW-Dual [2]; [7]): 0.998

CC(CN1CC(=O)NC(=O)C1)N1CC(=O)NC(=O)C1.Cl (centres undefined) (library stock concentration (final ~1000-fold dilution): 10 mM)
NF-kB SEAP reporter activity (RAW-Dual [1]; agonist: LPS (TLR4) 0.1 ug/mL): 1.08 | NF-kB SEAP reporter activity (RAW-Dual [1]; [3]): 1.13 | NF-kB SEAP reporter activity (RAW-Dual [1]; [4]): 1 | NF-kB SEAP reporter activity (RAW-Dual [1]; [5]): 1.01

NC1(C(=O)NC(CCO)c2ccc(Cl)cc2)CCN(c2ncnc3[nH]ccc23)CC1 (centres undefined)
NF-kB SEAP reporter activity (RAW-Dual [2]; [6]): 0.829 | NF-kB SEAP reporter activity (RAW-Dual [2]; [7]): 0.793

NC1(C(=O)NC(CCO)c2ccc(Cl)cc2)CCN(c2ncnc3[nH]ccc23)CC1 (centres undefined) (library stock concentration (final ~1000-fold dilution): 10 mM)
NF-kB SEAP reporter activity (RAW-Dual [1]; agonist: LPS (TLR4) 0.1 ug/mL): 0.9 | NF-kB SEAP reporter activity (RAW-Dual [1]; [3]): 1.06 | NF-kB SEAP reporter activity (RAW-Dual [1]; [4]): 0.974 | NF-kB SEAP reporter activity (RAW-Dual [1]; [5]): 0.723

COC1(c2sc3c(N4CCOCC4)nc(-c4cnc(N)nc4)nc3c2C)COC1
NF-kB SEAP reporter activity (RAW-Dual [2]; [6]): 0.913 | NF-kB SEAP reporter activity (RAW-Dual [2]; [7]): 1.05

COC1(c2sc3c(N4CCOCC4)nc(-c4cnc(N)nc4)nc3c2C)COC1 (library stock concentration (final ~1000-fold dilution): 10 mM)
NF-kB SEAP reporter activity (RAW-Dual [1]; agonist: LPS (TLR4) 0.1 ug/mL): 1.46 | NF-kB SEAP reporter activity (RAW-Dual [1]; [3]): 0.707 | NF-kB SEAP reporter activity (RAW-Dual [1]; [4]): 0.459 | NF-kB SEAP reporter activity (RAW-Dual [1]; [5]): 0.608

CCOC(=O)C1=C(C)NC(C)=C(C(=O)OC)C1c1cccc([N+](=O)[O-])c1 (centres undefined) (library stock concentration (final ~1000-fold dilution): 10 mM)
NF-kB SEAP reporter activity (RAW-Dual [1]; agonist: LPS (TLR4) 0.1 ug/mL): 0.655 | NF-kB SEAP reporter activity (RAW-Dual [1]; [3]): 0.533 | NF-kB SEAP reporter activity (RAW-Dual [1]; [4]): 0.498 | NF-kB SEAP reporter activity (RAW-Dual [1]; [5]): 0.496

CCOC(=O)C1=C(C)NC(C)=C(C(=O)OC)C1c1cccc([N+](=O)[O-])c1 (centres undefined)
NF-kB SEAP reporter activity (RAW-Dual [2]; [6]): 0.846 | NF-kB SEAP reporter activity (RAW-Dual [2]; [7]): 0.826

CC(C)(C)c1ccc(Cn2nc(-c3ccc(Cl)cc3)cc2C(=O)NO)cc1 (library stock concentration (final ~1000-fold dilution): 10 mM)
NF-kB SEAP reporter activity (RAW-Dual [1]; agonist: LPS (TLR4) 0.1 ug/mL): 1.32 | NF-kB SEAP reporter activity (RAW-Dual [1]; [3]): 1.24 | NF-kB SEAP reporter activity (RAW-Dual [1]; [4]): 0.824 | NF-kB SEAP reporter activity (RAW-Dual [1]; [5]): 0.964

CC(C)(C)c1ccc(Cn2nc(-c3ccc(Cl)cc3)cc2C(=O)NO)cc1
NF-kB SEAP reporter activity (RAW-Dual [2]; [6]): 1.47 | NF-kB SEAP reporter activity (RAW-Dual [2]; [7]): 1.5

CCC(C)C(=O)OC1CC(O)C=C2C=CC(C)C(CCC(O)CC(O)CC(=O)O)C21 (centres undefined) (library stock concentration (final ~1000-fold dilution): 10 mM)
NF-kB SEAP reporter activity (RAW-Dual [1]; agonist: LPS (TLR4) 0.1 ug/mL): 1.01 and 1.04 | NF-kB SEAP reporter activity (RAW-Dual [1]; [3]): 1 and 1.02 | NF-kB SEAP reporter activity (RAW-Dual [1]; [4]): 1.08 and 1.05 | NF-kB SEAP reporter activity (RAW-Dual [1]; [5]): 0.841 and 1.15

Cc1c[nH]c(-c2cnc(NCCNc3ccc(C#N)cn3)nc2-c2ccc(Cl)cc2Cl)n1 (library stock concentration (final ~1000-fold dilution): 10 mM)
NF-kB SEAP reporter activity (RAW-Dual [1]; agonist: LPS (TLR4) 0.1 ug/mL): 3.08 | NF-kB SEAP reporter activity (RAW-Dual [1]; [3]): 2.65 | NF-kB SEAP reporter activity (RAW-Dual [1]; [5]): 2.9
